# Test results published in PubChem BioAssay AID1345082 (National Center for Advancing Translational Sciences (NCATS), 2018).
# “And” between values parts separate entries of the source, which are not always exact repeats. Equal entries are not always repeated. Among all 94,000 compounds or so, about 4,000 (4.3%) were called active. The shares of active, inactive and inconclusive entries below differ from those in the screen. The call rests on the fitted dose curve; in most records, active means well fitted inhibition curve with a large enough effect; inconclusive means small, poorly fitted or top-dose-only effect; inactive means no such curve, though single readings can be large or run the other way. Potencies of inconclusive entries are doubtful fits and often do not repeat.
# Experiment: Cytotoxic Profiling in NIH 3T3 Cell Line of Diverse Libraries Using Quantitative High-Throughput Screening; further: nearly all actives have a fitted effect of over 55% in size
# Details: NIH 3T3 viability, CellTiter-Glo ATP luminescence, 48-72 h; series mostly up to 96.7 µM
# Text: Cell-based phenotypic screening is a commonly used approach to discover biological pathways, novel drug targets, chemical probes and high-quality hit-to-lead molecules. Many hits identified from high-throughput screening campaign are ruled out through a series of follow-up potency, selectivity/specificity, and cytotoxicity assays. Prioritization of molecules with little or no cytotoxicity for a more in-depth downstream evaluation influence the future direction of projects, so cytotoxicity profiling of the screening libraries at early stage is essential for increasing the likelihood of candidate success. In this study, we analyzed results from a cell-based cytotoxicity screening campaign, comprising nearly 10,000 compounds in NCATS annotated libraries, and over 100,000 compounds in a diversity library, evaluated in four normal cell lines (HEK 293, NIH 3T3, CRL-7250 and HaCat) and a cancer cell line (KB 3-1, a HeLa subline) with overall screening outcomes, hit rates, pan-activity and selectivity. For the annotated library, we also examined the primary targets and mechanistic pathways regularly associated with cell death. To our knowledge, this is the first study to use high-throughput screening to profile large libraries for cytotoxicity assessment in both normal and cancer cell lines. In summary, the results generated here constitutes a valuable resource for the scientific community and provides insight on identifying cytotoxic compounds with particular mechanisms of action, and prioritizing compounds with suitable cytotoxicity profile for further evaluation.
# NIH 3T3 cells were seeded into white 1536-well plates using a Multidrop Combi peristaltic dispenser (ThermoFisher, Waltham, MA) at a density of 400 cells/well in 5 uL of medium respectively. A pintool (Kalypsys) was used to transfer 23 nL of compound solution to the 1536-well assay plates. After 48 or 72 hr incubation at 37 degree Celsius, 5% CO2 and 95% humidity, 2.5 uL of CellTiter-Glo (Promega) was dispensed into each well using a dispenser (Aspect Automation, St. Paul, MN) with solenoid valves (Lee Valves, Westbrook CT). Plates were left at room temperature for 10 min before imaging the ATP-coupled luminescence using a ViewLux microplate imager (PerkinElmer, Waltham, MA).
# Potency means the concentration at half of the fitted maximal effect; tags describe the fitted curve by direction and shape.
row,Compound,Potency
1,CNC(=O)[C@@H]1C[C@H](Oc2cccnc2)CN1C(=O)CCc1c[nH]c2ccccc12,"inconclusive: 79.4 µM [inhibitor, partial curve, poor fit]"
2,O=[S+]1([O-])NCC2(CCN(Cc3ccccn3)CC2)Oc2ncccc21,inactive
3,CN(C)S(=O)(=O)N1CCC2(CC1)CC1C(=O)NCCN1C2 (stereo not given),inactive
4,CS(=O)(=O)N1Cc2ccccc2CC2(CCCN(CC3CCNC3)C2)C1 (stereo not given),inactive
5,CCN(C(C)=O)C1CCN(Cc2nc(-c3cccc(Cl)c3)oc2C)C1 (stereo not given),"inconclusive: 63.1 µM [inhibitor, partial curve, poor fit]"
6,CC(C)Oc1cccc(-c2nc(C(=O)NCc3ccco3)cs2)c1,"inconclusive: 50.1 µM [inhibitor, partial curve, poor fit]"
7,COc1cc(NC(=O)CN2C(=O)C(c3ccccc3)=NC2(C)C)cc(OC)c1OC,"inconclusive: 50.1 µM [inhibitor, partial curve, poor fit]"
8,Cc1ccccc1C(=O)N1CCC2(C1)C(=O)N(C)c1ccccc12 (stereo not given),inactive
9,CC(=O)N1CCN(C(=O)C[C@@H]2C[C@@H](C(C)C)[C@H](CNC(=O)c3cncnc3)C=C2C)CC1,inactive
10,Cc1nn(-c2ccc(F)cc2)c(C)c1[C@@H]1C=C[C@@H](NC(=O)CC(C)(C)CC(=O)O)C1,"inconclusive: 112 µM [inhibitor, partial curve, poor fit]"
11,OC[C@@H](O)CNc1nccc(C2(c3ccccc3Cl)CCNCC2)n1,inactive
12,CCc1noc(-c2cn(C3CCN(C(=O)c4ccc(F)c(F)c4)CC3)nn2)n1,"inconclusive: 50.1 µM [inhibitor, partial curve, poor fit]"
13,Cc1nc(N2CCC(NCCNc3ccncc3C)CC2)c2ccsc2n1,active: 44.7 µM
14,COc1ccc(OC)c(NC(=O)C2CC(=O)N(c3n[nH]c4cccc(F)c34)C2)c1 (stereo not given),inactive
15,O=C(c1ccc(Cl)cc1)N1CCCC(C(=O)N2CCC(c3nc4ncccc4[nH]3)CC2)C1 (stereo not given),inactive
16,c1cncc(-c2ccnc(NCC(c3cccnc3)N3CCCCC3)n2)c1 (stereo not given),inactive
17,COc1ccccc1-c1cccc(C(=O)N2CCN(C(=O)Nc3ccc(Cl)cc3)CC2)c1,"inconclusive: 39.8 µM [inhibitor, partial curve, poor fit]"
18,Cc1nc(CN2C(=O)OC3(CCN(C(=O)CCc4ccccn4)CC3)C2(C)c2ccccc2)cs1 (stereo not given),"inconclusive: 44.7 µM [inhibitor, partial curve, poor fit]"
19,O=C(Nc1ccc(Cl)cc1)N1CCCC(c2nn(-c3ccc(F)cc3)c(=O)[nH]2)C1 (stereo not given),"inconclusive: 70.8 µM [inhibitor, single point]"
20,O=C(NCc1ccc(F)cc1)c1cn2cc(-c3ccc(C(F)(F)F)cc3)sc2n1,"inconclusive: 50.1 µM [inhibitor, partial curve, poor fit]"
21,Cc1noc(C)c1CN1CCNc2cc(-c3ccccc3)ncc2C1,"inconclusive: 89.1 µM [inhibitor, partial curve]"
22,Cc1ccc(C(=O)N2CCC(N3Cc4cnc(C)n4C3=O)CC2)cc1,"inconclusive: 79.4 µM [inhibitor, partial curve, poor fit]"

row,Compound,Potency
1,COc1ccc(C(=O)NC2CCN(C(=O)c3cc4c(=O)[nH]c(C)cn4n3)CC2)cc1,inactive
2,O=C(c1cc(Cl)ccc1F)N1C[C@@H](CO)[C@H](c2ccncc2)C1,inactive
3,COc1ccc(C(=O)N2CCN(c3ccnc4ccnn34)CC2)cc1,"inconclusive: 50.1 µM [inhibitor, partial curve, poor fit]"
4,O=C(Cn1cccc1-c1nc(-c2ccccc2)no1)NCc1ccccc1,"inconclusive: 56.2 µM [inhibitor, partial curve, poor fit]"
5,c1ccc(C2CCN(c3ccc4nnc(-c5ccccn5)n4n3)CC2)cc1,active: 31.6 µM
6,CCc1nc(-c2c3n(c(=O)n(Cc4ccc(C(=O)OC)cc4)c2=O)CCCC3)no1,inactive
7,CN(Cc1ccccc1)C(=O)CC1CCN(C(=O)CCC2CCCC2)C1 (stereo not given),"inconclusive: 56.2 µM [inhibitor, partial curve, poor fit]"
8,c1ccc(-c2nc3ccncc3[nH]2)cc1,"inconclusive: 100 µM [inhibitor, partial curve, poor fit] and inconclusive: 79.4 µM [inhibitor, partial curve]"
9,CC[C@H]1CN(C(=O)Nc2ccccc2)CC[C@H]1CC(=O)NCc1ccccc1,inactive
10,COc1ccc(-c2cccc(C(=O)N3CCN(C(C)=O)CC3)c2)nn1,inactive
11,Cc1cccc(CC(=O)N2CCCCCC2c2nnc(-c3ccccc3)o2)c1 (stereo not given),"inconclusive: 50.1 µM [inhibitor, partial curve, poor fit]"
12,O=C(Nc1ccc(Oc2ccccc2)cc1)N[C@H]1CO[C@H]2[C@@H]1OC[C@H]2OC(=O)Nc1cccc(C(F)(F)F)c1,inactive
13,COc1ccc(CC(=O)N2CCC(C(=O)N3CCCC3c3nc4ccncc4[nH]3)CC2)cc1 (stereo not given),inactive
14,COc1ccc(NC(=O)c2ccc3c(c2)OCCN(CCC(C)C)C3)cn1,"inconclusive: 89.1 µM [inhibitor, partial curve, poor fit]"
15,COC(=O)CNC(=O)c1cn2cc(-c3ccccc3)sc2n1,"inconclusive: 89.1 µM [inhibitor, partial curve, poor fit]"
16,CN(C)C(=O)c1cccnc1OC1CCN(C(=O)Nc2cc(F)cc(F)c2)C1 (stereo not given),"inconclusive: 50.1 µM [inhibitor, partial curve, poor fit]"
17,CC1=C[C@@H](CC#N)[C@H](C(C)C)C[C@H]1CC(=O)NCc1ccccc1,"inconclusive: 112 µM [inhibitor, single point]"
18,Cc1cnc(-c2ccccc2)n1CC1CCN(C(=O)c2ccsc2)C1 (stereo not given),inactive
19,COc1ccc(C2Cn3cnc(C(=O)N4CCC(C(=O)NCc5ccc(F)cc5)CC4)c3CO2)cc1 (stereo not given),inactive
20,O=C(c1ccc2nnc(-c3ccc(OC(F)(F)F)cc3)n2c1)N1CCOCC1,"inconclusive: 70.8 µM [inhibitor, partial curve, poor fit]"
21,CN(Cc1cccnc1)c1ccc2ncc(Nc3ccc(F)cc3)n2n1,"inconclusive: 17.8 µM [inhibitor, full curve, poor fit]"
22,Cc1cc(C)n(CCC(=O)NCCc2noc(-c3ccncc3)n2)n1,"inconclusive: 79.4 µM [inhibitor, partial curve, poor fit]"

row,Compound,Potency
1,Cc1nn(-c2ccccc2)c2c1C(C1CC1)N(C1CCN(C(=O)Nc3ccc(Cl)cc3)C1)C2=O (stereo not given),"inconclusive: 79.4 µM [inhibitor, partial curve, poor fit]"
2,COc1cccc(CN2CCC3(Cc4ccccc4CNC3=O)C2)c1 (stereo not given),inactive
3,Cc1ccc(CN2CCc3nc(C)nc(-c4ccc(O)cc4)c3C2)cc1,"inconclusive: 50.1 µM [inhibitor, partial curve, poor fit]"
4,CCC1Oc2ccc(NS(=O)(=O)c3ccc(Cl)cc3)cc2CN(Cc2ccc(F)cc2)C1=O (stereo not given),active: 14.1 µM
5,CC(=O)N1CC2(Cc3ccccc31)CN(C(=O)c1ccc(F)cc1)C2,inactive
6,CCc1csc(CNC(=O)c2ccc(N(C)Cc3cnn(C)c3)nc2)n1,inactive
7,O=C(NC1C=CS(=O)(=O)C1)c1ccc2nc(-c3ccc(F)cc3)cn2c1 (stereo not given),"inconclusive: 50.1 µM [inhibitor, partial curve, poor fit]"
8,Cc1ccc(S(=O)(=O)N2CCC(CCC(=O)NCc3cccc(F)c3)CC2)cc1,"inconclusive: 50.1 µM [inhibitor, single point]"
9,O=C(CCn1ccn2nc3c(c2c1=O)CCCC3)N1CCN(c2ccc(F)cc2)CC1,"inconclusive: 50.1 µM [inhibitor, partial curve, poor fit]"
10,O=C(NCCOc1ccccc1)c1nc2c(o1)CCN(Cc1cccs1)CC2,"inconclusive: 112 µM [inhibitor, single point]"
11,O=C(c1ccc(Cl)s1)N1CCC2(CC1)CN(c1ccncn1)CC2CO (stereo not given),"inconclusive: 35.5 µM [inhibitor, partial curve]"
12,Cc1nn2c(c1-c1ccccc1C(C)C)N(C(=O)C1CCOCC1)CCC2,"inconclusive: 100 µM [inhibitor, partial curve, poor fit]"
13,CCN1c2cc(C(=O)NCc3cccc(Cl)c3)ccc2C(=O)N2CCCCC21 (stereo not given),"inconclusive: 50.1 µM [inhibitor, partial curve, poor fit]"
14,Cc1cc(C(=O)N2CC(F)(F)C[C@H]2c2nc(C3CC3)no2)c(C)o1,inactive
15,CC(C)C1CN(C(=O)c2ccccc2-c2ncc[nH]2)CCC(=O)N1CC1CC1 (stereo not given),inactive
16,COc1ccc(-c2cc(-c3ccncc3)cn3cncc23)cc1,active: 35.5 µM
17,CNC(=O)[C@H]1C[C@H](Oc2cccnc2)CN1S(=O)(=O)c1ccccc1C,inactive
18,O=C(CN1CCN(c2ncncc2-c2nc(-c3ccccc3)no2)CC1)N1CCCCC1,"inconclusive: 15.8 µM [inhibitor, full curve, poor fit]"
19,CC1CCCN(C(=O)c2cc3c(s2)CCN(C(=O)c2ccc(Cl)cc2)C3)C1 (stereo not given),"inconclusive: 44.7 µM [inhibitor, partial curve, poor fit]"
20,COc1cc(F)cc(-c2cnc3[nH]cc(CC(=O)N4CCOCC4)c3c2)c1,"inconclusive: 50.1 µM [inhibitor, partial curve, poor fit]"
21,O=C(CCCc1ccccc1)N1CCC(Cc2nc(-c3ccncc3)n[nH]2)CC1,"inconclusive: 35.5 µM [inhibitor, partial curve]"
